# Laboratory results from the supplement of paper PMC3334620.
# The full ranking holds about 33,000 sequences; the median of “E-score (-0.5 to 0.5)” is about -0.013, and the highest 2% start at about 0.3. This is one part of the list.
# Molecular target: T1, Msn1 (UniProt P22148)
# T1 sequence: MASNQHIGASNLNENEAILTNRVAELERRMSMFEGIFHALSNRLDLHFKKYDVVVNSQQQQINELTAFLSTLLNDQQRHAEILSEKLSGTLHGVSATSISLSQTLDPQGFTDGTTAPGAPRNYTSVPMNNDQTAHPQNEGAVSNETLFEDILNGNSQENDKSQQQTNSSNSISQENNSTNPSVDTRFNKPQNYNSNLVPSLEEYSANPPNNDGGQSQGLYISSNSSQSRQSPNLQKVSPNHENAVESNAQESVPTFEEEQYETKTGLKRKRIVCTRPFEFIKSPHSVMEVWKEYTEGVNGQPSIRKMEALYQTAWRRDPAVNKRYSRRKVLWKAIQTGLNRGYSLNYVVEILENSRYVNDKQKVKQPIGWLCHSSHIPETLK
# Experiment: PBM E-score (8-mer binding enrichment) (E-score (-0.5 to 0.5)); higher = stronger / more preferred TF binding; most listed sequences are background and not binding sites
# Conditions: protein concentration: 200 nM; construct: GST-full length
# In short: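 Yeast transcription factors carrying a GST tag, as full-length proteins or DNA-binding domains, were produced by PURExpress in vitro transcription/translation. About 100-200 nM protein was applied to universal all-10-mer Agilent arrays, double-stranded by primer extension on fresh or once-stripped slides. Bound protein was detected with fluorescent anti-GST, and scans were normalised with masliner. The Universal PBM Analysis Suite gave each ungapped eight-base word, pooled with its reverse complement, an E-score, a modified Wilcoxon-Mann-Whitney statistic.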
row,Sequence,PBM E-score
1,AGGACGTG,0.303
2,GTTCTCGA,0.0715
3,AGTTCTAA,0.165
4,AGTGACTC,-0.126
5,ACCACGCA,-0.139
6,CATACGCC,-0.00717
7,CCGGAAGA,0.0498
8,AGTAAGGC,-0.0642
9,GAGTTGGC,-0.155
10,CCCCAATA,-0.122
11,AAACCATC,0.0969
12,AACCGACG,0.0303
13,GGGCCAAA,-0.0172
14,CGTTGATA,0.189
15,GTTCCAGA,0.102
16,ATTCAATC,0.122
17,ACGTACAG,-0.0675
18,ACGACGCG,0.144
19,GCAGCAGC,0.0679
20,GCACATCA,-0.0992
21,AGGAGATG,-0.231
22,TAGACTAA,-0.0893

row,Sequence,PBM E-score
1,CACTGTGG,-0.0512
2,GAAGGTCC,-0.055
3,ATGGTTCG,0.0816
4,GGTCAATA,0.026
5,ACGTTACC,-0.153
6,TGGGTTAA,-0.0198
7,CCAGGGAA,-0.283
8,GTGTCACA,0.261
9,CGATGGGA,-0.0516
10,ACACCTGG,-0.0963
11,CGCAACTC,0.191
12,GCGAGTCA,-0.125
13,TAGCACCA,-0.122
14,AACAAAAA,0.15
15,AGGTTAGG,-0.153
16,ACCCAGGT,-0.312
17,ACGGAAAT,0.212
18,GAACGCAA,0.104
19,CTTGCGAA,0.158
20,ATCGTCGG,0.0703
21,ACTCGTTC,-0.0159
22,ACTGCGTC,-0.0319

row,Sequence,PBM E-score
1,ATGCCGCC,0.0974
2,CTTGCATC,-0.193
3,AAAAGACC,0.00338
4,CATGCAAC,0.0683
5,CCAGCGAC,-0.143
6,CTAATAAC,0.222
7,AGTATAGG,0.0498
8,ACTCTTTA,-0.0509
9,GTGCGTGA,0.137
10,AATGCGTA,-0.0351
11,CTCGCGCC,-0.167
12,AGCGACTA,0.0409
13,ACATCCTA,0.0184
14,CAAGGCTA,0.0109
15,ATGTTCCG,0.158
16,AACCGGAT,0.163
17,ACAATTAG,0.146
18,CCCGCACC,-0.182
19,GATCATCC,-0.161
20,CACGTCCG,0.0782
21,AGAGTTTA,0.129
22,AGAGACAT,0.43

row,Sequence,PBM E-score
1,AGTGACGA,0.112
2,CGGACGGA,-0.00604
3,GGGGTTAA,-0.1
4,AAACTGGT,0.0799
5,GACACTGA,0.223
6,CCTTGAAC,-0.122
7,ACCAATCC,0.00725
8,GAGTGTAC,-0.199
9,GTAGCACA,-0.172
10,GGTAAGAC,0.0472
11,CTCAAATA,0.00541
12,ACAAGGCC,-0.137
13,CTGATTTA,0.0526
14,AGCTGGAT,-0.163
15,CTTATACA,0.0393
16,AGCGTACA,0.0198
17,ATCATGGG,-0.0733
18,AGAAGTTA,-0.0397
19,CCCCCGAG,-0.363
20,AGGCCCGG,-0.194
